The values below come from a collection of fitness landscapes (doi:10.1016/j.celrep.2020.107928).

The chains are these.
B1: Caulobacter ParB omega fusion; a variant is named by its letters at X, in order, B8GW30 (parent)
chain: MESVVVGEPGMSEGRRGLGRGLSALLGEVDAAPAQAPGEQLGGSREAPIEILQRNPDQPRRTFREEDLEDLSNSIREKGVLQPILVRPSPDTAGEYQIVAGERAWRAAQRAGLKTVPIMVRELDDLAVLEIGIIENVQRADLNVLEEALSYKVLMEKFERTQENIAQTIGKSXSHVANXMRLLXLPDEVQSYLVSGELTAXHARAIAAAADPVALAKQIIEGGLSVRETEALARKAPNLSAGKSKGGRPPRVKDTDTQALESDLSSVLGLDVSIDHRGSTGTLTITYATLEQLDDLCNRLTRGI

In all, about 81,000 sequences were measured (“one-hybrid fitness for binding NBS DNA”: median about -0.1, highest 2% from about 0.36 on). Some of the results follow.

In the experiment the parent is B1. Kind of experiment: one-hybrid fitness for binding NBS DNA (the Noc-binding site; scaled: cognate 1, non-cognate 0); higher = stronger binding. The following applies: with NBS DNA site. A digest of the protocol:
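Values were rescaled so that cognate is 1 and non-cognate is 0. Each is a fitness, the log change in a variant's read ratio to wild type from Illumina reads of plasmids before and after selection, with three replicate libraries pooled and variants under 10 reads dropped. Selection of the Caulobacter ParB libraries, four specificity codons randomised, used E. coli USO with a HIS3 reporter, site 19 bp from the promoter, on M9-minus-histidine with 0.1 mM IPTG and 5 mM 3-AT for 48 hours at 37°C.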
Turning to VRAY, the “one-hybrid fitness for binding NBS DNA” value is at most 0.2.
The value for RNDK was at most 0.2; that for LRKW was at most 0.2.
For QRGE the value was 0.286.
The value for MSIR was at most 0.2; that for QSSF was at most 0.2; that for CPRA was at most 0.2.
Regarding SQSA, the “one-hybrid fitness for binding NBS DNA” value was at most 0.2.
Consider MMHC, for which the “one-hybrid fitness for binding NBS DNA” value was at most 0.2.
For RYQW the value was 0.361; for PGIT, at most 0.2.
The value for DNEL was at most 0.2; that for RPEM was at most 0.2; that for VPHL was at most 0.2.
The value for WRQT was at most 0.2.
Consider AYKV, for which the “one-hybrid fitness for binding NBS DNA” value was at most 0.2.
The value for CGIG was at most 0.2; that for TGDT was at most 0.2.
The value for TQTD was at most 0.2; that for CLQT was at most 0.2.
The value for ARCR was at most 0.2; that for RKWV was at most 0.2; that for AYSE was at most 0.2.
As for SWKV, the “one-hybrid fitness for binding NBS DNA” value was at most 0.2.
Take SKYC: the “one-hybrid fitness for binding NBS DNA” value is at most 0.2.
For WLRS the value was at most 0.2; for PEFC, at most 0.2.
The value for PNKV was at most 0.2; that for SHYR was at most 0.2; that for KQID was at most 0.2.
The value for SCGC was at most 0.2; that for SSDW was at most 0.2.
For the variant RNNE, the “one-hybrid fitness for binding NBS DNA” value is at most 0.2.
For CKQR the value was at most 0.2; for IDKT, at most 0.2; for TMGY, at most 0.2.
For EDTS, the “one-hybrid fitness for binding NBS DNA” value was at most 0.2.
The value for TRKN was 0.212; that for KFAP was at most 0.2; that for DAHR was at most 0.2.
The value for RQIV was at most 0.2.
For KHML the value was at most 0.2; for NMTH, at most 0.2; for DDTS, at most 0.2.
Turning to TYDV, the “one-hybrid fitness for binding NBS DNA” value is at most 0.2.
The value for RVQP was at most 0.2; that for PLCE was at most 0.2.
The value for SLAR was at most 0.2.
For QQDP, the “one-hybrid fitness for binding NBS DNA” value was at most 0.2.
As to RADA, the “one-hybrid fitness for binding NBS DNA” value was at most 0.2.
With IMGS, the “one-hybrid fitness for binding NBS DNA” value is at most 0.2.
The value for KFQG was at most 0.2; that for ISTM was at most 0.2; that for QHHF was at most 0.2.
The value for TVRN was at most 0.2; that for VKPR was at most 0.2.
For CVYC, the “one-hybrid fitness for binding NBS DNA” value is at most 0.2.
The value for LGHD was at most 0.2.
For QKEP the value was at most 0.2; for ITKS, at most 0.2.
The value for LCYT was at most 0.2; that for SGRY was at most 0.2; that for SFRM was at most 0.2.
With GKVY, the “one-hybrid fitness for binding NBS DNA” value was at most 0.2.
The value for ARVF was at most 0.2.
The value for TQSL was at most 0.2; that for NEPR was at most 0.2; that for LSPA was at most 0.2.
In the case of CGSR, the “one-hybrid fitness for binding NBS DNA” value was at most 0.2.
For TWYT the value was at most 0.2.
For HQSM the value was at most 0.2; for IYLN, at most 0.2.
The value for LYRR was at most 0.2; that for QDTE was at most 0.2; that for RRCV was 0.255.
Consider YTRM, for which the “one-hybrid fitness for binding NBS DNA” value was at most 0.2.
On to IVSV, for which the “one-hybrid fitness for binding NBS DNA” value was at most 0.2.
For the variant HKES, the “one-hybrid fitness for binding NBS DNA” value was at most 0.2.
For CRCE the value was at most 0.2; for QCAW, 0.27.
As for FVTE, the “one-hybrid fitness for binding NBS DNA” value is at most 0.2.
The value for HELC was at most 0.2; that for GQII was at most 0.2.
The value for GMST was at most 0.2; that for FGAV was at most 0.2.
The value for ANLV was at most 0.2.
With LQMW, the “one-hybrid fitness for binding NBS DNA” value was at most 0.2.
Consider VKHL, for which the “one-hybrid fitness for binding NBS DNA” value is at most 0.2.
The value for PVYR was at most 0.2; that for VLCL was at most 0.2.
For RVRK the value was at most 0.2; for ACPQ, at most 0.2.
For WQQG the value was at most 0.2.
For RWGK, the “one-hybrid fitness for binding NBS DNA” value was at most 0.2.
With STMS, the “one-hybrid fitness for binding NBS DNA” value was at most 0.2.
Take PHNV: the “one-hybrid fitness for binding NBS DNA” value is at most 0.2.
For AWKC the value was at most 0.2; for VTNN, at most 0.2.
For YGQC the value was at most 0.2.
For KCRI the value was at most 0.2; for QPRV, at most 0.2; for AIVA, at most 0.2.
Regarding KHFG, the “one-hybrid fitness for binding NBS DNA” value is at most 0.2.
For TNLL the value was at most 0.2.
YAVM: the “one-hybrid fitness for binding NBS DNA” value is at most 0.2.
For IARM, the “one-hybrid fitness for binding NBS DNA” value was at most 0.2.
The value for CSST was at most 0.2; that for NCIT was at most 0.2; that for PSAL was at most 0.2.
For GFAS the value was at most 0.2; for PFWL, at most 0.2; for PRAD, at most 0.2.
For LMHR the value was at most 0.2.
Turning to QPMC, the “one-hybrid fitness for binding NBS DNA” value was at most 0.2.
LPMN: the “one-hybrid fitness for binding NBS DNA” value was at most 0.2.
The value for ASHI was at most 0.2; that for RKGL was at most 0.2.
For HPWR the value was at most 0.2; for RLDY, at most 0.2.
The value for KTGR was 0.206.
With DHQC, the “one-hybrid fitness for binding NBS DNA” value is at most 0.2.
For QHGV the value was at most 0.2; for VHDS, at most 0.2.
For ADWV the value was at most 0.2; for KHRV, at most 0.2; for QVEN, at most 0.2.
GIRR: the “one-hybrid fitness for binding NBS DNA” value was at most 0.2.
The value for PRFT was at most 0.2; that for PPTH was at most 0.2; that for VNMD was at most 0.2.
Consider CRAR, for which the “one-hybrid fitness for binding NBS DNA” value is at most 0.2.
Turning to PKPT, the “one-hybrid fitness for binding NBS DNA” value was at most 0.2.
For WPNA the value was at most 0.2.
As for RWTD, the “one-hybrid fitness for binding NBS DNA” value was at most 0.2.
The value for PCVR was at most 0.2.
The value for RVAT was 0.383; that for DIQR was at most 0.2; that for IKWR was at most 0.2.
The value for IVYR was at most 0.2; that for PAQT was at most 0.2.
Turning to DNYR, the “one-hybrid fitness for binding NBS DNA” value is at most 0.2.
For TPAI the value was at most 0.2.
For QKHY the value was 0.206.
For FSVD the value was at most 0.2.
In the case of EPRK, the “one-hybrid fitness for binding NBS DNA” value is at most 0.2.
For MTMI the value was at most 0.2.
Take AGHI: the “one-hybrid fitness for binding NBS DNA” value was at most 0.2.
As to ATGD, the “one-hybrid fitness for binding NBS DNA” value was at most 0.2.
Consider SRVH, for which the “one-hybrid fitness for binding NBS DNA” value was at most 0.2.
On to QSDQ, for which the “one-hybrid fitness for binding NBS DNA” value was at most 0.2.
For LMYN the value was at most 0.2.
The value for ISYT was at most 0.2; that for WPAA was at most 0.2; that for GSTP was at most 0.2.
For SQLC the value was at most 0.2; for PRMD, at most 0.2; for YDAV, at most 0.2.
Consider KWQW, for which the “one-hybrid fitness for binding NBS DNA” value is at most 0.2.
Regarding CKMS, the “one-hybrid fitness for binding NBS DNA” value was at most 0.2.
The value for RCCK was at most 0.2; that for VVSW was at most 0.2; that for DWPS was at most 0.2.
The value for SDTP was at most 0.2; that for VEKG was at most 0.2.
As to HWNR, the “one-hybrid fitness for binding NBS DNA” value was at most 0.2.
For VQMR the value was at most 0.2.
For PRGC the value was at most 0.2; for YSRS, at most 0.2; for STER, at most 0.2.
For EYVV the value was at most 0.2.
For AKRE, the “one-hybrid fitness for binding NBS DNA” value was at most 0.2.
For TVVW the value was at most 0.2; for TNTW, at most 0.2.
The value for LPYF was at most 0.2.
The value for RSTK was at most 0.2.
PDMS: the “one-hybrid fitness for binding NBS DNA” value was at most 0.2.
For PCTK the value was at most 0.2; for STIC, at most 0.2; for TPDY, at most 0.2.
The value for KMVC was at most 0.2; that for CTWL was at most 0.2; that for QVRY was 0.286.
The value for SDNF was at most 0.2; that for LMTS was at most 0.2.
For HEPW, the “one-hybrid fitness for binding NBS DNA” value was at most 0.2.
For LPDN the value was at most 0.2; for YRLC, at most 0.2.
For SEHW the value was at most 0.2; for LRQF, at most 0.2.
VGKY: the “one-hybrid fitness for binding NBS DNA” value is at most 0.2.
Turning to FEPP, the “one-hybrid fitness for binding NBS DNA” value is at most 0.2.
The value for SGQS was at most 0.2; that for LRAF was at most 0.2; that for KYIT was at most 0.2.
For CYVR the value was at most 0.2.
